Some of the results follow. The data describe in vitro nicking of single-stranded DNA by Rep domains for 1 h at 37 °C with 3 µM enzyme; only the middle of the 90-letter strands is printed. The score is log2 (uncut reads / reads without enzyme); uncut sequences lie near 0, cut ones below; no hit call is given. Counts are relative to all reads; where an enzyme cuts many sequences, the uncut ones exceed 0.
Assays:
Assay in all cases: uncleaved DNA left, log2 of reads against the no-enzyme library (log2 ratio); higher = less cleavage (more negative = more Rep cleavage of the k-mer); sequences stand for … in CTCGTCCG…ACCGGAGA
[1] = tested on: T1, Rep nickase domain of Muscovy duck circovirus
T1 sequence (residues 1-111 of Rep, tag left off): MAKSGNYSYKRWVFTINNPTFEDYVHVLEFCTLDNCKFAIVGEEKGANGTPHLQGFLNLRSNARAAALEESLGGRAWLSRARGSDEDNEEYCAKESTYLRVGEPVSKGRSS
Description: (§1)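 A pool of 90-nt single-stranded DNAs with seven random bases just before the constant AC of the nick site (name = the seven bases) was cut by 3 µM recombinant His6-SUMO-tagged Rep nickase domain (300 nM DNA, 50 mM HEPES pH 8.0, 50 mM NaCl, 1 mM MnCl2, 1 h, 37 °C, three replicates). Uncut DNA was amplified and sequenced.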

[2] = tested on: T2, Rep nickase domain of banana bunchy top virus
T2 sequence (residues 1-94 of Rep, tag left off): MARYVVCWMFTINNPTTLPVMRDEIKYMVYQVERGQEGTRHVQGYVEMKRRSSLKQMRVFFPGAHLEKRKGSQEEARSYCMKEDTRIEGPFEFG
Description: as §1

[3] = tested on: T3, Rep nickase domain of cabbage leaf curl virus
T3 sequence (residues 1-116 of Rep, tag left off): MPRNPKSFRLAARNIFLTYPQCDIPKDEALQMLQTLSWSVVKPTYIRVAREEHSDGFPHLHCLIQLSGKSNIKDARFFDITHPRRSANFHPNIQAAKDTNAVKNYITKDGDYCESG
Description: as §1

[4] = tested on: T4, Rep nickase domain of chickpea chlorotic dwarf virus
T4 sequence (residues 1-124 of Rep, tag left off): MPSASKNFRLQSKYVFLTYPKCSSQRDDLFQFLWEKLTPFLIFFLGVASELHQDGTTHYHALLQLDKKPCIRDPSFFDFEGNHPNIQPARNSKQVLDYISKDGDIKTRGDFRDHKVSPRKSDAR
Description: as §1

[5] = tested on: T5, Rep nickase domain of faba bean necrotic yellows virus
T5 sequence (residues 1-98 of Rep, tag left off): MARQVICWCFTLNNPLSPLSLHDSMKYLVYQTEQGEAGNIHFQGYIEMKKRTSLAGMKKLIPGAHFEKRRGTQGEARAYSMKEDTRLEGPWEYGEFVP
Description: as §1

[6] = tested on: T6, Rep nickase domain of maize striate mosaic virus
T6 sequence (residues 1-117 of Rep, tag left off): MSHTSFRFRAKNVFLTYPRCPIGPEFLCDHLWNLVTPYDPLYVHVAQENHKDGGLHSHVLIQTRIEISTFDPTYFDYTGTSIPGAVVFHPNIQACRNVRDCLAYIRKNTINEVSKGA
Description: as §1

[7] = tested on: T7, Rep nickase domain of porcine circovirus 2
T7 sequence (residues 2-116 of Rep, tag left off): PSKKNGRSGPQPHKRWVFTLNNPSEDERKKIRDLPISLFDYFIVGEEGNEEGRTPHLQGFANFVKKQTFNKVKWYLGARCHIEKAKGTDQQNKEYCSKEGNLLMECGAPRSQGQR
Description: as §1

[8] = tested on: T8, Rep nickase domain of tomato golden mosaic virus
T8 sequence (residues 1-124 of Rep, tag left off): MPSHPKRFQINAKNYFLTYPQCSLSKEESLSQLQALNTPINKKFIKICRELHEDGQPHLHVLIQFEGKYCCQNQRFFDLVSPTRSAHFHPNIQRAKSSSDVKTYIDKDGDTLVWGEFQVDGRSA
Description: as §1

[9] = tested on: T9, Rep nickase domain of tomato yellow leaf curl virus
T9 sequence (residues 1-136 of Rep, tag left off): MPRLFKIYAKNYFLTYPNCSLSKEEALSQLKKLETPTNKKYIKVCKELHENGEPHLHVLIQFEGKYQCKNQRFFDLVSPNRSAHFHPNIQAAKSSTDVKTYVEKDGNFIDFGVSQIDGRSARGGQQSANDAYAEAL
Description: as §1

[10] = tested on: T10, Rep nickase domain of wheat dwarf virus
T10 sequence (residues 1-137 of Rep, tag left off): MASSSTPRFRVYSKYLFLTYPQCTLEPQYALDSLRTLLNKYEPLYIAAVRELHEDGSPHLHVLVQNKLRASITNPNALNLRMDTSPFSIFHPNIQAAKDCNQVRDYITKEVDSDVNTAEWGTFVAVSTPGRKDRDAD
Description: as §1

Sequence	uncleaved DNA left (log2) [1]	uncleaved DNA left (log2) [2]	uncleaved DNA left (log2) [3]	uncleaved DNA left (log2) [4]	uncleaved DNA left (log2) [5]	uncleaved DNA left (log2) [6]	uncleaved DNA left (log2) [7]	uncleaved DNA left (log2) [8]	uncleaved DNA left (log2) [9]	uncleaved DNA left (log2) [10]
GCTAGTG	0.258	0.244	-0.315	-0.17	0.13	-0.691	0.416	0.282	0.285	0.265
TCTGATA	-0.195	-0.0614	-0.00902	-0.675	0.05	0.0558	-0.135	-0.00718	-0.239	-0.00208
AACTGTG	0.179	0.186	-0.712	-0.179	0.094	-0.936	0.255	0.16	0.323	0.159
AGTTGTA	-0.0819	-0.1	-0.104	-0.487	-0.0522	-0.438	-2.33	-0.0507	-0.0658	-0.0532
CTCTGCC	-0.0369	-0.0877	-0.201	-0.6	-0.0366	-0.797	-0.413	-0.0907	-0.0577	-0.155
CGTGCTG	-0.0979	-0.226	-0.108	0.544	-0.0613	1.25	-0.0885	-0.142	-0.154	-0.147
GATTACA	-0.725	-0.146	0.0934	-1.78	-0.0189	0.906	-0.469	0.0569	0.0738	0.0941
ACGTCCC	-0.127	-0.0758	-0.155	-0.0173	-0.225	-0.333	-0.128	-0.143	-0.108	-0.17
GGCGCAG	-0.0459	0.0588	0.371	1.06	0.00675	1.76	0.229	0.0829	-0.0249	0.133
GGGGATT	0.087	0.168	0.815	1.95	0.0615	2.32	0.15	-0.0341	0.0424	0.267
GTAGGCG	0.0297	0.0441	-0.664	0.411	0.108	-0.488	0.163	-0.0311	0.116	-0.136
TTGATAT	0.0404	-0.0796	0.313	-0.0929	-0.106	0.139	-0.0139	-0.0427	0.0199	0.055
ACGACGC	-0.0725	-0.174	-0.269	-0.264	-0.172	-0.885	-0.0474	-0.0905	-0.139	-0.0991
TGCGACA	0.0916	0.0628	0.0152	0.567	-0.0125	1.18	0.0803	0.0529	0.131	-0.00762
CCCTCTC	-0.0437	-0.0657	0.145	-0.197	-0.0969	-0.525	-0.138	-0.181	-0.0655	-0.0257
TTAACCA	-0.152	-0.0446	-0.242	-1.72	-0.0618	-0.079	-0.613	-0.0356	-0.0351	0.018
GAGGGTG	0.109	-0.0891	-0.203	-0.0268	0.0233	0.102	0.165	0.128	0.0724	-0.0206
AATAGAG	0.023	-0.0024	-0.608	-0.471	0.0797	-1.06	0.215	0.136	0.137	0.0434
TTAACAA	0.0889	0.207	-0.156	-0.61	0.0968	-0.00432	0.129	0.074	0.173	0.189
TACCGTA	-0.0146	-0.125	-0.324	-2.02	-0.0809	-0.905	-0.447	-0.0547	-0.022	-0.0797
ATAAATG	0.0686	0.0371	-0.553	-0.537	-0.062	-1.04	0.17	0.0341	0.0144	0.0108
GGCGATC	0.0552	-0.0253	0.359	1.09	-0.0599	1.48	0.204	0.00549	0.0607	0.123
ACCGCGC	-0.0399	-0.102	-0.474	0.565	-0.246	-0.09	-0.0632	-0.185	-0.19	-0.137
TTTAAGT	-0.151	-0.228	-0.12	-0.642	-0.118	-0.987	-0.431	-0.209	-0.19	-0.27
GTAAGGC	-0.0192	0.00133	-0.334	-0.968	-0.0551	0.598	0.164	-0.0597	0.00858	0.00357
TTCGTTC	0.0177	-0.109	0.228	-0.489	0.0935	-0.448	0.0338	-0.0604	-0.0554	0.102
TAATTAA	-0.201	0.0137	-2.76	-2.7	0.0186	-1.08	-0.657	-0.716	-0.0273	-1.7
TACTGCT	-3.43	-1.93	-2.78	-2.69	-0.0114	-1.19	-3.35	-0.256	0.0427	-0.138
ACTGGTT	0.0439	0.0269	-0.0347	-0.152	-0.0405	0.434	-0.109	0.11	-0.063	-0.0491

— the supplement of paper PMC7826260
